According to PubChem BioAssay AID463173 (ICCB-Longwood Screening Facility, Harvard Medical School, 2010):
Among all 52,000 compounds or so, about 4,300 (8.3%) were called active. Rule as the data show it: active = survival mostly below about 52% (no sharp cut-off); inactive = mostly above about 56%. The list shows a part of the results.

What follows are molecules tested on DeltatarO mutant (assay: growth inhibition of S. aureus wild type versus tarO mutant, primary screen, teichoic acid synthesis inhibitors, RN4220, OD600 (AID 463173)). Conditions: OD600, 18 h, active compounds read low, screened at 18.75 µg/mL (by protocol).

SMILES | survival
CCCn1cc(S(=O)(=O)c2cccc(Cl)c2)c(=O)c2cc(F)c(N3CCCC3)cc21 | inactive: 83%
CC1(C)CC(=O)C(C(=O)/C=C/c2ccco2)C(=O)C1 | inactive: 95%
CCOC(=O)c1cc(-c2ccc(C)cc2)n(CC(=O)Nc2ccc(OC)cc2OC)c1C | inactive: 97%
Cc1ccc(NC(=O)CSc2nccn2C2CCCC2)cc1Cl | inactive: 99%
COc1ccc(C(=O)CSc2nccc(=O)[nH]2)cc1 | inactive: 83%
Cc1cc2ncn(S(=O)(=O)c3ccc(S(=O)(=O)N(C)C)cc3)c2cc1C | inactive: 93%
N#C/C(=C\c1ccc(-c2cccc(Cl)c2)o1)C(=O)Nc1cccc(C(F)(F)F)c1 | inactive: 118%
Cc1oc2ncnc(N3CCOCC3)c2c1C(=O)NCc1ccc(Cl)cc1 | inactive: 94%
Fc1ccc(N2CCN(c3ncnc4[nH]ncc34)CC2)cc1 | inactive: 95%
CC(C)OCCCNC(=O)CN1C(=O)c2ccccc2Sc2ncccc21 | inactive: 93%
O=C(Nc1cccc2c1CCCC2)N1CCOc2ccc(Cl)cc21 | inactive: 45%
CN1c2ccccc2N(C)C1c1cccs1 | inactive: 89%
CCCC(=O)Nc1ccc2nc(SCC(=O)N3CCOCC3)sc2c1 | inactive: 80%
Cc1nn2c(=O)cc(COC(=O)c3ccc(NC(=O)COc4ccccc4F)cc3)nc2s1 | inactive: 100%
Cc1nc2c(c(C)nn2C(C)(C)C)c(C)c1CCC(=O)Nc1ccc(F)cc1 | inactive: 77%
CC(=O)NC(CC(=O)O)c1ccc(F)cc1 (stereo unspecified) | inactive: 86%
Cc1ccc(CNC(=O)Cn2c3ncccc3c(=O)n2-c2ccc(C)cc2)cc1 | inactive: 116%
CC(C)c1cc(-c2nc(-c3cccc(Cl)c3)no2)n[nH]1 | inactive: 119%
COc1ccc(C)c2sc(N3CCN(C(=O)c4ccco4)CC3)nc12 | active: 17%
CCOc1ccc(CNC(=O)CSc2c3c(nc4ccc(Cl)cc24)CCCC3)cc1 | inactive: 70%
COCCCNC(=O)c1ccc(Cn2c(=O)c3cccn3c3cccnc32)cc1 | inactive: 70%
Cc1nn(CC(=O)NCc2ccc(N(C)C)cc2)c(=O)c2nn(-c3ccccc3)c(C)c12 | inactive: 83%
COc1ccc(C(CC(=O)Nc2ccc(Br)cn2)N2Cc3ccccc3C2=O)cc1 (stereo unspecified) | inactive: 75%

SMILES | survival
COc1ccccc1CCNC(=O)C1CCN(c2nnc(C)c3c(C)n(-c4ccc(C)cc4)nc23)CC1 | inactive: 85%
Cn1ccnc1-c1ccc(-c2nccn2C)cc1 | inactive: 83%
Cc1ccc(Cn2c(CN3CCN(c4cccc(Cl)c4)CC3)nc3c2c(=O)n(C)c(=O)n3C)cc1 | inactive: 107%
O=[N+]([O-])c1ccc(O)c(-c2ccnc3cc(-c4ccccc4)nn23)c1 | active: 20%
Cn1c(C(=O)NCc2cccc(Cl)c2)cc2oc3ccccc3c21 | inactive: 85%
CC(=O)c1ccc(N2CCN(C(=O)CCCn3c(=O)[nH]c4ccsc4c3=O)CC2)cc1 | inactive: 82%
CCOc1ccc(CC(C(=O)NN)C(=O)NN)cc1CN(C)C | inactive: 86%
Cc1ccc(NC(=O)CN2C(=O)CC(c3ccc(C)c(C)c3)=Nc3ccccc32)cc1 | inactive: 78%
CCC(CC)C(=O)Nc1cc(-c2nc3cccnc3s2)ccc1C | active: 57%
Cc1cccc(C)c1OC(=O)CSc1nnc(-c2ccc3c(c2)OCO3)o1 | inactive: 77%
COc1ccc(Nc2c(-c3ccsc3)nc3nc(C)cc(C)n23)cc1 | inactive: 92%
Cc1c(C(=O)O)sc2nc(-c3ccccc3)cn12 | inactive: 101%
COc1ccc(CCNC(=O)c2c(C)oc3ncn(CC(C)C)c(=O)c23)c(OC)c1 | inactive: 95%
O=C(NC1CCCCC1)C(c1ccncc1)N(CC1CCCO1)C(=O)C(F)(F)F (stereo unspecified) | inactive: 78%
CCCNc1nc(Cl)nc(Cl)n1 | active: 62%
Cc1ccc2c(=O)cc(C(=O)Nc3c(C(=O)c4ccc(F)cc4)oc4ccccc34)oc2c1C | inactive: 65%
CSc1nn(CC(=O)Nc2cc(C)ccc2C)c(N)c1S(=O)(=O)c1ccccc1 | inactive: 63%
O=C(Nc1nnc(S(=O)(=O)N2CCCCCC2)s1)c1ccc(Cl)cc1 | inactive: 62%
COc1ccc(NC(=O)CC(C)S(=O)(=O)c2cc3c(cc2C)NC(=O)CO3)cc1OC (stereo unspecified) | inactive: 88%
CC(C)CC(=O)OCc1cc(=O)n2nc(C3CCCCC3)sc2n1 | inactive: 89%
COc1ccccc1CNC(=O)C1CCN(c2nnc(C)c3c(C)n(-c4ccccc4)nc23)CC1 | inactive: 104%
CCOC(=O)c1c(-c2ccccc2)oc2ccc(OCc3cccc(Br)c3)cc12 | active: 38%
O=C1CCSC2(C(=O)N(Cc3ccc(F)cc3)c3ccccc32)N1c1cccc(F)c1 (stereo unspecified) | inactive: 94%

SMILES | survival
CCN1C(=O)c2ccccc2S(=O)c2ccc(C(=O)NCc3ccc(Cl)cc3)cc21 (stereo unspecified) | inactive: 51%
O=C(Cn1cc(C(=O)c2cccs2)c2ccccc21)Nc1ccc(Br)cc1 | inactive: 127%
COc1cccc(C(c2sc3nc(-c4ccco4)nn3c2O)N2CCN(C)CC2)c1 (stereo unspecified) | inactive: 88%
COc1ccc(CNC(=O)CN(C)S(=O)(=O)c2ccc3c(c2)c(=O)n(C)c(=O)n3C)cc1 | inactive: 144%
COc1ccc2[nH]c(=O)c(C(c3nnnn3Cc3ccccc3)N(C)C3CCCCC3)cc2c1 (stereo unspecified) | inactive: 68%
COc1ccc(C(=O)Oc2cc(-c3ccc(OC)c(OC)c3)cc(=O)c3c(C)oc(C)c23)cc1 | inactive: 81%
CCS(=O)(=O)Nc1ccc(-c2cn3c(C)csc3n2)cc1 | inactive: 88%
COC(=O)c1c(C)sc(-c2c(-c3ccc(OC)c(F)c3)[nH]c3c2c(=O)n(C)c(=O)n3C)c1O | inactive: 120%
CCSc1nc2ccccc2c(OCc2cc(C(=O)OC)ccc2OC)c1C(=O)OC | active: -12%
CC(C)C(=O)Nc1nnc(S(=O)(=O)N2c3ccccc3CC2C)s1 (stereo unspecified) | inactive: 87%
CC1(C)Cc2ccccc2-c2nc(NN)[nH]c(=O)c21 | inactive: 67%
CCCOc1cccc(C(=O)Nc2cccc(NC(=O)c3ccc(Cl)cc3Cl)c2)c1 | inactive: 88%
Cc1ccc(C(C)C)c(OCC(=O)Nc2ccc(O)c(-c3nc4cc(Cl)ccc4o3)c2)c1 | inactive: 73%
CCc1ccccc1NC(=O)Cn1ccn(Cc2ccccc2)c(=O)c1=O | inactive: 80%
O=C(NC1CCS(=O)(=O)C1)c1ccccc1C(=O)c1ccccc1 (stereo unspecified) | inactive: 87%
COc1ccc(NC(=O)CCc2nnc3n(Cc4ccc(C)cc4)c(=O)c4ccccc4n23)cc1 | inactive: 59%
CC1CCCCN1C(=O)CCS(=O)(=O)c1cc2c(cc1Cl)NC(=O)CO2 (stereo unspecified) | inactive: 89%
COc1cccc(CNCCCSc2nnnn2C)c1OC | inactive: 73%
Cc1cccc(C(=O)N2CCc3cc(CNS(=O)(=O)c4ccc(F)c(Cl)c4)ccc32)c1 | inactive: 88%
O=C(Nc1ccccc1)N(Cc1cccc(Cl)c1)c1ccccn1 | active: 37%
CC(=O)c1ccc(N2CCN(C(=O)Nc3ccc(C(C)C)cc3)CC2)cc1 | inactive: 60%
COc1ccc(CCNC(=O)c2ccc3c(c2)ncn3-c2ccc(C(C)C)cc2)cc1OC | inactive: 96%
CC(C)c1ccc2occ(CC(=O)N(Cc3ccc(F)cc3)C3CCS(=O)(=O)C3)c2c1 (stereo unspecified) | inactive: 61%

SMILES | survival
Cc1cc(/C(O)=C2\C(=O)C(=O)N(CCCN(C)C)C2c2ccc(O)cc2)ccc1OCC(C)C (stereo unspecified) | inactive: 109%
Cn1c2ccccc2c2cnn(CC(=O)NCCCN3CCN(c4ccccc4F)CC3)c(=O)c21 | inactive: 80%
Cc1cc(N)n2ncc(-c3ccccc3)c2n1 | inactive: 95%
CCC(=O)NCC1COc2ccccc2O1 (stereo unspecified) | inactive: 91%
COc1ccc(NS(=O)(=O)c2ccc3[nH]c4c(c3c2)CCCCC4)cc1 | inactive: 117%
CC(=O)Nc1c(C)nn(-c2ccccc2)c1N1CCC(C(=O)Nc2ccccc2F)CC1 | inactive: 64%
CCOc1ccc(CNS(=O)(=O)c2ccc3c(c2)CCCN3C(C)=O)cc1 | inactive: 93%
Cc1ccc(C)c(NC(=O)C2CCN(c3cc(C)nc4c(-c5ccc(Cl)cc5)c(C)nn34)CC2)c1 | inactive: 87%
COc1ccc(-n2cc(C(=O)Oc3cc(C)cc(C)c3)c3ccccc3c2=O)cc1 | inactive: 107%
COc1cccc(NC(=O)Cn2cc(C(=O)c3ccco3)c3ccccc32)c1 | inactive: 62%
O=C(CCSc1nc(-c2ccco2)cc(C(F)(F)F)n1)NC1CC1 | inactive: 88%
CCOc1ccc(CN2C(=O)c3ccccc3C2C(=O)NCCc2ccc(OC)c(OC)c2)cc1 (stereo unspecified) | inactive: 88%
COc1ccccc1NC(=O)C1=C(C)Nc2ncnn2C1c1cccn1C (stereo unspecified) | active: 8%
CCOC(=O)c1c(S(=O)(=O)N2CCC(C(=O)Nc3ccc(F)cc3F)CC2)c(C)n(C)c1C | inactive: 78%
COc1ccc(CNC(=O)Cc2c(C)c3cc4c(C)coc4c(C)c3oc2=O)cc1OC | inactive: 67%
COc1ccc(Cn2c(CO)cnc2SCc2ccccc2C)cc1 | inactive: 88%
CC(C)c1ccc(NC(=O)Cn2cc(S(=O)(=O)Cc3ccccc3Cl)c3ccccc32)cc1 | inactive: 73%
O=C(Nc1ccc2oc(-c3cccc(F)c3)nc2c1)c1ccc2ccccc2c1 | inactive: 60%
Cc1cc(C)cc(NC(=O)c2cc(S(=O)(=O)N3CCc4ccccc43)cn2C)c1 | inactive: 63%
COc1ccccc1CNC(=O)c1ccc2c(c1)N(Cc1c(F)cccc1Cl)C(=O)CS2 | active: 43%
CCCCC(Sc1nc2cc3c(cc2c(=O)n1CCCC(=O)NCc1ccc2c(c1)OCO2)OCO3)C(=O)OCC (stereo unspecified) | inactive: 82%
O=C(CSc1ncc(S(=O)(=O)c2ccc(Br)cc2)c(=O)[nH]1)Nc1ccc2c(c1)OCCO2 | inactive: 61%
